Results on 31 molecules are retold here after PMC9911399, “Two distinct binding modes provide the RNA-binding protein RbFox with extraordinary sequence specificity”.

Where a chain is given by its changes, count along the chain named. The list shows a part of the results.

T1: RBFOX1 RRM (Homo sapiens, UniProt Q9NWB1 109-208)
T1 sequence: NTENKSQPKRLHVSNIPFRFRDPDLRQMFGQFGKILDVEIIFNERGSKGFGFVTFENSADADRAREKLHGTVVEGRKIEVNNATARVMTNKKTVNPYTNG

B1: UCCGGGG (DNA:RNA)
RNA: GGGAGACCGGAAUUCAGAUUGUCCUCCGGGGUUAAAUCCCGUCGUAGCCACCA
DNA 1: CAATCTGAATTCCGGTCTCCC
DNA 2: TGGTGGCTACGACGGGATT
B2: ACGCGCG (DNA:RNA)
RNA: B1 RNA with U25A, C27G, G28C, G30C
DNA 1: CAATCTGAATTCCGGTCTCCC
DNA 2: TGGTGGCTACGACGGGATT
B3: UUAGGGA (DNA:RNA)
RNA: B1 RNA with C26U, C27A, G31A
DNA 1: CAATCTGAATTCCGGTCTCCC
DNA 2: TGGTGGCTACGACGGGATT
B4: GAUAAAG (DNA:RNA)
RNA: B1 RNA with U25G, C26A, C27U, G28A, G29A, G30A
DNA 1: CAATCTGAATTCCGGTCTCCC
DNA 2: TGGTGGCTACGACGGGATT
B5: CCGCUAU (DNA:RNA)
RNA: B1 RNA with U25C, C27G, G28C, G29U, G30A, G31U
DNA 1: CAATCTGAATTCCGGTCTCCC
DNA 2: TGGTGGCTACGACGGGATT
B6: CGGCUGC (DNA:RNA)
RNA: B1 RNA with U25C, C26G, C27G, G28C, G29U, G31C
DNA 1: CAATCTGAATTCCGGTCTCCC
DNA 2: TGGTGGCTACGACGGGATT
B7: CUUAAUA (DNA:RNA)
RNA: GGGAGACCGGAAUUCAGAUUGUCCCUUAAUAUUAAAUCCCGUCGUAGCCACCA
DNA 1: CAATCTGAATTCCGGTCTCCC
DNA 2: TGGTGGCTACGACGGGATT
B8: AAGAGCC (DNA:RNA)
RNA: B7 RNA with C25A, U26A, U27G, A29G, U30C, A31C
DNA 1: CAATCTGAATTCCGGTCTCCC
DNA 2: TGGTGGCTACGACGGGATT
B9: AUGCCAA (DNA:RNA)
RNA: B7 RNA with C25A, U27G, A28C, A29C, U30A
DNA 1: CAATCTGAATTCCGGTCTCCC
DNA 2: TGGTGGCTACGACGGGATT
B10: GCAGCAA (DNA:RNA)
RNA: B1 RNA with U25G, C27A, G29C, G30A, G31A
DNA 1: CAATCTGAATTCCGGTCTCCC
DNA 2: TGGTGGCTACGACGGGATT
B11: AUCGCGC (DNA:RNA)
RNA: B1 RNA with U25A, C26U, G29C, G31C
DNA 1: CAATCTGAATTCCGGTCTCCC
DNA 2: TGGTGGCTACGACGGGATT
B12: GUGUAAU (DNA:RNA)
RNA: B7 RNA with C25G, U27G, A28U, U30A, A31U
DNA 1: CAATCTGAATTCCGGTCTCCC
DNA 2: TGGTGGCTACGACGGGATT
B13: AGAUACC (DNA:RNA)
RNA: B7 RNA with C25A, U26G, U27A, A28U, U30C, A31C
DNA 1: CAATCTGAATTCCGGTCTCCC
DNA 2: TGGTGGCTACGACGGGATT
B14: CUGGCCG (DNA:RNA)
RNA: B7 RNA with U27G, A28G, A29C, U30C, A31G
DNA 1: CAATCTGAATTCCGGTCTCCC
DNA 2: TGGTGGCTACGACGGGATT
B15: CACCCCA (DNA:RNA)
RNA: B7 RNA with U26A, U27C, A28C, A29C, U30C
DNA 1: CAATCTGAATTCCGGTCTCCC
DNA 2: TGGTGGCTACGACGGGATT
B16: GUUAACC (DNA:RNA)
RNA: B7 RNA with C25G, U30C, A31C
DNA 1: CAATCTGAATTCCGGTCTCCC
DNA 2: TGGTGGCTACGACGGGATT
B17: GGCAUAA (DNA:RNA)
RNA: B7 RNA with C25G, U26G, U27C, A29U, U30A
DNA 1: CAATCTGAATTCCGGTCTCCC
DNA 2: TGGTGGCTACGACGGGATT
B18: AUGCUUC (DNA:RNA)
RNA: B7 RNA with C25A, U27G, A28C, A29U, A31C
DNA 1: CAATCTGAATTCCGGTCTCCC
DNA 2: TGGTGGCTACGACGGGATT
B19: CCACGUC (DNA:RNA)
RNA: B7 RNA with U26C, U27A, A28C, A29G, A31C
DNA 1: CAATCTGAATTCCGGTCTCCC
DNA 2: TGGTGGCTACGACGGGATT
B20: GUGAUCA (DNA:RNA)
RNA: B7 RNA with C25G, U27G, A29U, U30C
DNA 1: CAATCTGAATTCCGGTCTCCC
DNA 2: TGGTGGCTACGACGGGATT
B21: UCCUAGG (DNA:RNA)
RNA: B1 RNA with G28U, G29A
DNA 1: CAATCTGAATTCCGGTCTCCC
DNA 2: TGGTGGCTACGACGGGATT
B22: CCAACUC (DNA:RNA)
RNA: B7 RNA with U26C, U27A, A29C, A31C
DNA 1: CAATCTGAATTCCGGTCTCCC
DNA 2: TGGTGGCTACGACGGGATT
B23: AUCGUUC (DNA:RNA)
RNA: B7 RNA with C25A, U27C, A28G, A29U, A31C
DNA 1: CAATCTGAATTCCGGTCTCCC
DNA 2: TGGTGGCTACGACGGGATT
B24: ACAUAGA (DNA:RNA)
RNA: B7 RNA with C25A, U26C, U27A, A28U, U30G
DNA 1: CAATCTGAATTCCGGTCTCCC
DNA 2: TGGTGGCTACGACGGGATT
B25: GUCCAGG (DNA:RNA)
RNA: B1 RNA with U25G, C26U, G28C, G29A
DNA 1: CAATCTGAATTCCGGTCTCCC
DNA 2: TGGTGGCTACGACGGGATT
B26: AAUGAUG (DNA:RNA)
RNA: B7 RNA with C25A, U26A, A28G, A31G
DNA 1: CAATCTGAATTCCGGTCTCCC
DNA 2: TGGTGGCTACGACGGGATT
B27: UCAAGCU (DNA:RNA)
RNA: B1 RNA with C27A, G28A, G30C, G31U
DNA 1: CAATCTGAATTCCGGTCTCCC
DNA 2: TGGTGGCTACGACGGGATT
B28: ACGUUUA (DNA:RNA)
RNA: B7 RNA with C25A, U26C, U27G, A28U, A29U
DNA 1: CAATCTGAATTCCGGTCTCCC
DNA 2: TGGTGGCTACGACGGGATT
B29: UGUACUG (DNA:RNA)
RNA: B7 RNA with C25U, U26G, A29C, A31G
DNA 1: CAATCTGAATTCCGGTCTCCC
DNA 2: TGGTGGCTACGACGGGATT
B30: GUUGUGC (DNA:RNA)
RNA: B7 RNA with C25G, A28G, A29U, U30G, A31C
DNA 1: CAATCTGAATTCCGGTCTCCC
DNA 2: TGGTGGCTACGACGGGATT
B31: GCAAGCA (DNA:RNA)
RNA: B7 RNA with C25G, U26C, U27A, A29G, U30C
DNA 1: CAATCTGAATTCCGGTCTCCC
DNA 2: TGGTGGCTACGACGGGATT

The experiment concerns the target T1, RBFOX1 RRM. Nature of the experiment: EMSA; HiTS-Eq, 1 nM pool, 10 min; buffer printed only for the single-RNA assays: 10 mM Tris pH 7.5, 150 mM NaCl, 3.4 mM EDTA, 0.001% NP-40, 30 C. The conditions noted are these: tags: His6 N-terminal (pET28a); label: 5' 32P. Put shortly: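 These values rest on relative association constants, computed from read-count changes of each RNA species versus the control reaction and normalised to the cognate motif. Reads came from free RNA recovered by 8% native PAGE after purified RbFox RRM (wild type or mutant) at increasing concentrations was equilibrated for 10 min in 50 µL with 1 nM of a 5′-radiolabelled pool with 7 randomized nucleotides and DNA-annealed flanks.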
On to B1, for which the binding signal is 0.00368 KA relative to UGCAUGU.
Next, B2: 0.0165 KA relative to UGCAUGU; B3: 0.000676 KA relative to UGCAUGU.
Next, B4: 0.00983 KA relative to UGCAUGU.
Then B5, with 0.00807 KA relative to UGCAUGU; and B6, with 0.018 KA relative to UGCAUGU; and B7, with 0.0012 KA relative to UGCAUGU.
As to B8, the binding signal is 0.00759 KA relative to UGCAUGU.
Then B9, with 0.00891 KA relative to UGCAUGU; and B10, with 0.0107 KA relative to UGCAUGU.
Then B11, with 0.0102 KA relative to UGCAUGU; and B12, with 0.00791 KA relative to UGCAUGU; and B13, with 0.00702 KA relative to UGCAUGU.
Then B14, with 0.0234 KA relative to UGCAUGU.
On to B15, for which the binding signal is 0.000718 KA relative to UGCAUGU.
Next, B16: 0.00212 KA relative to UGCAUGU; B17: 0.00272 KA relative to UGCAUGU.
Then B18, with 0.0112 KA relative to UGCAUGU; and B19, with 0.00535 KA relative to UGCAUGU; and B20, with 0.00832 KA relative to UGCAUGU.
Next, B21: 0.0095 KA relative to UGCAUGU; B22: 0.00202 KA relative to UGCAUGU; B23: 0.00992 KA relative to UGCAUGU.
On to B24, for which the binding signal is 0.00152 KA relative to UGCAUGU.
Then B25, with 0.0174 KA relative to UGCAUGU; and B26, with 0.0128 KA relative to UGCAUGU.
Then B27, with 0.00676 KA relative to UGCAUGU; and B28, with 0.00169 KA relative to UGCAUGU; and B29, with 0.0177 KA relative to UGCAUGU.
Then B30, with 0.0279 KA relative to UGCAUGU.
B31: the binding signal is 0.0187 KA relative to UGCAUGU.
